Data taken from PubChem BioAssay AID1159614 (National Center for Advancing Translational Sciences (NCATS), 2016).
Screen size: about 45,000 compounds; about 65 (0.1%) were called active. Calls follow the shape of the dose curve; as a rule, active = well fitted activation curve with a large enough effect; inconclusive = small, poorly fitted or top-dose-only effect; inactive = no such curve, though single readings can be large or run the other way. Some of the results follow.

The compounds below were run against Galactocerebrosidase (Homo sapiens) (UniProt P54803) (assay: A Novel Cell-Based Assay to Identify Small Molecules for B -Galactocerebrosidase). Details: 145M-Twi-hGALC-G270D cells, HMU-beta-Gal fluorescence, 48 h; series mostly up to 57.5 µM; activation: at the top concentration.
In short: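 qHTS, 1536-well; 145M-Twi-hGALC-G270D cells (WT line also made) in DMEM/F12 + 10% FBS; compound incubation on live cells; HMU-β-gal 0.1 mM final, pH 5.2, NaTC; carbonate stop; fluorescence increase = enhanced residual activity.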
Also: 0% is about no effect; nearly all actives have a fitted effect of over 65% in size.

Chain of UniProt P54803 (P54803 whole entry, looked up): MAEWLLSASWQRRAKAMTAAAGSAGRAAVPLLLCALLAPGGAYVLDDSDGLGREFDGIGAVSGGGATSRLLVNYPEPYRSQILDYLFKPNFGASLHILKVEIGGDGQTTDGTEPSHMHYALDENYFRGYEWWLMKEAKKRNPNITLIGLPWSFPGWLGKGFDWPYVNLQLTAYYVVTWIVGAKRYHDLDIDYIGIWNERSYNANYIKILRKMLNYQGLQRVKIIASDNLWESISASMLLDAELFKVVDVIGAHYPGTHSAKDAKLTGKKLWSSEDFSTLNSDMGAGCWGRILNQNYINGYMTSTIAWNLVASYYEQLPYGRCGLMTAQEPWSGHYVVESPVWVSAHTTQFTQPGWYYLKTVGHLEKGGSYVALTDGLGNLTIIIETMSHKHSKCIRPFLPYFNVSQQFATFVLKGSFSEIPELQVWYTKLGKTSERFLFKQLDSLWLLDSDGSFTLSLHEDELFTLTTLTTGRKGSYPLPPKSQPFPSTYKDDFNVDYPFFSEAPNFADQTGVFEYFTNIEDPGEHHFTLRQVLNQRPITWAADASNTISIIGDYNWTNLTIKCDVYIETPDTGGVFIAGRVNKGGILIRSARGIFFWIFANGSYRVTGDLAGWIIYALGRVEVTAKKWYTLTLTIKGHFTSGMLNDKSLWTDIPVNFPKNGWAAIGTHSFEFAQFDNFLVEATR

activation, inactive:
COc1ccc(Cl)cc1NC(=O)Nc1c[nH]c(=O)[nH]c1=O -12.3%
O=C(NCC(c1cccnc1)N1CCc2ccccc2C1)C(=O)Nc1ccccc1F (centres undefined) -19.5%
CCN(C(=O)CCS(=O)(=O)c1ccc2c(c1)CCN2C(C)=O)c1cccc(C(F)(F)F)c1 -7.92%
CCCCc1ccc(Nc2cc(C)nc(-n3nc(C)cc3C)n2)cc1 -5.35%
COc1cc(OC)cc(C(=O)Nc2ccc3nc4c(c(Nc5ccc(OC)c(OC)c5)c3c2)CCCC4)c1 2.39%
O=C(Nc1ccc(-c2nc3ccccc3o2)c(O)c1)c1cc(Cl)ccc1Cl 1.44%
CCN1CCc2c(sc(NC(=O)c3ccc(S(=O)(=O)N(C)C4CCCCC4)cc3)c2C(N)=O)C1 -24%
O=C(/C=C\c1ccc2c(c1)OCO2)NC1CC(=O)N(c2ccccc2)C1 (centres undefined) -11.7%
CSc1ccc(CNC(=O)Cn2c(-c3cccs3)cc3cc(F)ccc32)cc1 -9.42%
CC(=O)O[C@]1(C(C)=O)CC[C@H]2[C@@H]3C=C(Cl)C4=CC(=O)[C@@H]5C[C@@H]5[C@]4(C)[C@H]3CC[C@@]21C -22.4%
CCCCNc1nc2c(-c3cccc(C)c3)nnn2c2ccccc12 -15.1%
COc1cc(C(=O)N2CCNC(=O)C2CC(=O)Nc2ccc(C)c(C)c2)cc(OC)c1OC (centres undefined) -8.44%
Cc1ccccc1-c1nnc(SCC(=O)N(C)c2ccccc2)o1 -13.7%
Cc1ccc(CNC(=O)CCc2c(C)nc3c(-c4ccc(F)cc4)c(C)nn3c2C)cc1 -17.7%
COC(=O)c1ccc(NC(=O)Cn2ccn3nc(-c4ccc(OC)cc4)cc3c2=O)cc1 -14.1%
COc1ccc2c(c1)c1c(c(=O)n(-c3ccccc3C)c(=O)n1CC(N)=O)n2C -6.78%
CCCN(CCC)C(=O)Cn1c(=O)n(CCCCCC(=O)Nc2ccccc2)c(=O)c2sccc21 -9.22%
Cc1cccc(OCC(=O)Nc2cccc(C(=O)OCc3cc(=O)n4nc(C(C)C)sc4n3)c2)c1 -15.4%
Cc1ccc(/C=C/c2onc(C)c2S(=O)(=O)N2CCC(C(=O)Nc3ccc(OC(F)(F)F)cc3)CC2)cc1 -19.9%
Cc1c(C(=O)OCc2ccccc2)[nH]c2c1C(=O)CC(c1ccc(N(C)C)cc1)C2 (centres undefined) -22%
Cc1nn2c3c(cnc2c1-c1ccc(Cl)cc1)C(=O)CC(c1ccc(C(C)C)cc1)C3 (centres undefined) -15.2%
COc1ccc(NC(=O)CN2C(=O)C(C)(C)c3cc(S(=O)(=O)N4CCCCC4)ccc32)cc1Cl -14.7%
CCc1sc(Nc2cccc(Cl)c2)nc1-c1cc2cccc(OC)c2oc1=O -9.59%
COC(=O)C1=C(C)NC(=O)NC1c1cn(-c2ccccc2)nc1-c1ccc(OC)c(Br)c1 (centres undefined) -27%
CCCn1c(COc2cccc(C)c2)nc2ccccc21 -13.1%
O=c1oc2cc(O)ccc2cc1-c1nc(-c2ccc(Cl)c(Cl)c2)cs1 -16.1%
COc1cccc(-n2c(SCC(=O)c3ccccc3)nc3c([nH]c4ccccc43)c2=O)c1 -18.3%
Cc1ccc(S(=O)(=O)C(CNC(=O)COc2ccccc2)c2cccs2)cc1 (centres undefined) -7.04%
CCOc1ccc(NC(=O)CSc2oc(-c3cccs3)nc2S(=O)(=O)c2ccc(C)cc2)cc1 -22.3%
CCn1nc(C)c2c(-c3ccccc3)cc(=O)n(C(C)C(=O)Nc3cccc(F)c3)c21 (centres undefined) -16.4%
CCc1ccc(NC(=O)C(=O)NCCc2csc(-c3cccc(F)c3)n2)cc1 -13%
Cc1ccc(C)c(Nc2nnc(-c3ccc(C)c(S(=O)(=O)N4CCN(C)CC4)c3)c3ccccc23)c1 -16.1%
Cc1ccc(C2=CC(c3ccccc3C)n3c(nc4ccccc43)N2)cc1 (centres undefined) -9.58%
COc1ccccc1NC(=O)c1sc2nc3c(c(C(F)(F)F)c2c1N)CN(C(C)=O)CC3 -10.8%
O=C(COc1ccc(Cl)cc1)NCC(c1ccco1)S(=O)(=O)c1ccccc1 (centres undefined) -6.37%
Cc1ccccc1CCNC(=O)c1ccc(NC(=O)N2CC(C)Sc3ccccc32)cc1 (centres undefined) -0.744%
Cc1ccn2c(Nc3ccccc3C)c(-c3ccc(N4CCOCC4)cc3)nc2c1 -7.76%
Cc1cc(C)c(NC(=O)CSc2n[nH]c(-c3ccccc3Cl)n2)c(C)c1 -34.3%
Cc1nn(-c2ccc(N3CCOCC3)nn2)c(C)c1CCC(=O)NCc1ccccc1 -9.27%
CN(C)CCNC(=O)CN1N=C(c2ccccc2)CCC1=O -18.5%
COc1ccc(N2CCN(C(=O)C3CCN(Cc4nc(-c5ccc(Cl)cc5)oc4C)CC3)CC2)cc1 -9.71%
C=C(C)Cn1c(=O)c2c(nc3n2CCN3c2cc(C)cc(C)c2)n(C)c1=O -2.15%
O=C(O)c1ccccn1 -17.9%
COc1ccc(NC(=O)Cn2c(=O)cc(C)c3c(C)nn(C)c32)cc1 -14.8%
COc1ccc(CNc2nc(-c3ccc(OC)cc3)cc(C(F)(F)F)n2)cc1 2.73%
COc1ccc2c(c1)CC(C(=O)NCCN1CCN(c3ccccc3F)CC1)CO2 (centres undefined) -21.1%
CCCC(=O)N1CCc2cc(OC)c(OC)cc2C1COc1ccc2c(C)cc(=O)oc2c1 (centres undefined) -4.52%
Cc1ccc(Cl)cc1N1CCN(C(=O)c2cnn(C(C)(C)C)c2C2CCN(C(=O)OC(C)(C)C)CC2)CC1 -7.59%
CCOc1ccc(NC(=O)Cn2cc(C(=O)c3ccc(CC)cc3)c(=O)c3cc4c(cc32)OCO4)cc1 -11%
CCCSc1ncc(Cl)c(C(=O)Nc2ccc(S(=O)(=O)N3CCC(C)CC3)cc2)n1 -10.3%
COc1ccc(NC(=O)c2cnc(Nc3ccc(C)c(Cl)c3)c3ccccc23)c(OC)c1 -16%
Cn1nnnc1SCCCNCc1cccc(OCc2ccccc2F)c1 -15.5%
Cc1ccc(/C=C(\C#N)C(=O)Nc2ccc(Br)cc2)o1 -11%
O=C(Cn1cc(SCc2ccc(Br)cc2)c2ccccc21)N1CCCCC1 -3.46%
O=C(Nc1c(C(=O)c2ccc(Cl)cc2)oc2ccccc12)c1cc(=O)c2ccccc2o1 0.749%
CCC(Sc1ncc(S(=O)(=O)c2ccc(C)cc2)c(=O)[nH]1)C(=O)Nc1cc(C)ccc1C (centres undefined) 1.27%
CCc1ccc(NC(=O)CN2CCN(C3CCCCC3)C(=O)C2=O)cc1 -16.9%
CCN(C(=O)CSc1nc2ccccc2n1Cc1ccc(C(=O)OC)cc1)c1ccccc1 -17.3%
COc1ccc(NC(=O)c2ccco2)cc1NC(=O)c1ccc(C)c(C)c1 -1.85%
CCc1nc2ccc(C(=O)NCc3ccc(N(C)C)cc3)cc2nc1CC -16.8%
Cc1ccc2oc(=O)c(S(=O)(=O)c3ccc(F)cc3)cc2c1 -17.6%
COc1ccc(CCN2C(=O)NC(NC(=O)c3ccccc3OC)(C(F)(F)F)C2=O)cc1OC (centres undefined) -9.67%
Nc1nnc(SCC(=O)Nc2cccc(F)c2)s1 -9.44%
O=C(O)COCCN1CCN(C(c2ccccc2)c2ccc(Cl)cc2)CC1 (centres undefined) -10.1%
CCOc1ccc(NC(=O)CCc2nc3cccnc3n2Cc2ccc(OC)cc2)cc1 -6.38%
Cc1ccc(NC(=O)C2CCCN(c3cnccn3)C2)cc1Cl (centres undefined) -8.83%
Cc1ccc(CS(=O)Cc2ccc(C(=O)NCc3ccccc3Cl)o2)cc1 (centres undefined) -12.7%
Cc1ccc(S(=O)(=O)c2nnn3c2nc(NCc2ccccc2)c2sccc23)cc1 -21.3%
CC(C)c1ccc(NC(=O)C2CCN(S(=O)(=O)c3ccc(Br)s3)CC2)cc1 2.01%
Clc1ccc(Nc2nc(-c3ccccc3)c3ccccc3n2)c(Cl)c1 -9.61%
O=S(=O)(c1cc(Br)c(Br)s1)N1CCN(c2ccccc2)CC1 -15.2%
COc1ccccc1C(=O)Nc1cccc(OCc2cc(=O)n3c(C)csc3n2)c1 -8.07%
CCOc1ccccc1NC(=O)C(=O)c1cc(C)n(-c2cccc(C)c2C)c1C 14%
COc1ccccc1NC(=O)C1=C(C)Nc2nc(SCc3ccccc3F)nn2C1c1ccncc1 (centres undefined) 8.65%
CC(C)Cc1nn2c(=O)cc(COC(=O)c3ccccc3NC(=O)c3cccs3)nc2s1 -12.4%
CN1C[C@H](C(=O)N[C@]2(C)O[C@@]3(O)[C@@H]4CCCN4C(=O)[C@H](Cc4ccccc4)N3C2=O)C[C@@H]2c3cccc4[nH]cc(c34)C[C@H]21 -13.9%
COc1ccc2c(c1)CCc1c(C(=O)Nc3cnn(Cc4ccc(Cl)cc4Cl)c3)noc1-2 -9.23%
COc1cccc(NC(=O)CCSc2nc(-c3ccco3)cc(C(F)(F)F)n2)c1 -13.6%
COc1ccc(-c2noc(N3CCN(c4ccc(Cl)cc4)CC3)n2)cc1OC -14.5%
CCc1nn2c(=O)cc(COC(=O)c3cccc(NC(=O)COc4ccccc4)c3)nc2s1 -12.5%
CCOc1ccc(CCNC(=O)c2cc3cc4cc(OC)ccc4nc3s2)cc1OCC -9.78%
COc1ccc(CNC(=O)C2CCN(S(=O)(=O)c3ccc4nc5c(c(C(=O)O)c4c3)CCCC5)CC2)cc1 -18.1%
Cc1cc(C)cc(NC(=O)Cn2cc(C(=O)c3ccncc3)c(=O)c3cc(C)c(C)cc32)c1 -7.73%
Cc1cccc(NC(=O)C2CCN(S(=O)(=O)c3ccc4[nH]c5c(c4c3)CCCCC5)CC2)c1 -17.9%
CCc1cccc(C)c1NC(=O)C1CCN(c2nnc(C)c3c(C)n(-c4ccccc4)nc23)CC1 -13.9%
CN(c1ccccc1)S(=O)(=O)c1nnc(NC(=O)c2ccco2)s1 -19.6%
Cc1ccccc1NC(=O)c1cc2sccc2n1Cc1ccc(F)cc1 -17.5%
CCCCCn1c(=O)[nH]c2cc(C(=O)N3CCN(c4cccc(Cl)c4)CC3)ccc2c1=O -7.35%
COc1ccc(OC)c(CNC(=O)c2cc(S(=O)(=O)N3CCC(C)CC3)cn2C)c1 5.48%
CCOC(=O)CCn1c(=O)c2cccn2c2cccnc21 -10.7%
COc1ccc(NC(=O)CCc2nc3c(C)nn(-c4ccc(C)cc4)c3n(C)c2=O)c(OC)c1 -12.7%
CSc1nn(Cc2ccccc2C)c(NC(C)=O)c1S(=O)(=O)c1ccc(C)cc1 -9.02%
COc1ccccc1C(=O)Nc1ccc2nc(SCC(=O)N3CCCC3)sc2c1 -6.36%
Cc1ccc2nc(-c3ccsc3)c(Nc3ccc(C(C)C)cc3)n2c1 -13.6%
